According to PMC4336329 (PLoS ONE, 2015):
Screen size: about 310,000 compounds; about 14,000 (4.5%) showed an effect of 50% or more. Effects have a minus sign here. Some of the results follow.

Molecular target: human ether-à-go-go-related gene (hERG) potassium channel (human, UniProt Q12809)
Experiment: primary screen, population patch clamp on CHO cells stably expressing hERG
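Also: peak tail current of the secondary pulse compared with the same well before compound.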

human ether-à-go-go-related gene (hERG) potassium channel, sequence (Q12809 whole entry, looked up): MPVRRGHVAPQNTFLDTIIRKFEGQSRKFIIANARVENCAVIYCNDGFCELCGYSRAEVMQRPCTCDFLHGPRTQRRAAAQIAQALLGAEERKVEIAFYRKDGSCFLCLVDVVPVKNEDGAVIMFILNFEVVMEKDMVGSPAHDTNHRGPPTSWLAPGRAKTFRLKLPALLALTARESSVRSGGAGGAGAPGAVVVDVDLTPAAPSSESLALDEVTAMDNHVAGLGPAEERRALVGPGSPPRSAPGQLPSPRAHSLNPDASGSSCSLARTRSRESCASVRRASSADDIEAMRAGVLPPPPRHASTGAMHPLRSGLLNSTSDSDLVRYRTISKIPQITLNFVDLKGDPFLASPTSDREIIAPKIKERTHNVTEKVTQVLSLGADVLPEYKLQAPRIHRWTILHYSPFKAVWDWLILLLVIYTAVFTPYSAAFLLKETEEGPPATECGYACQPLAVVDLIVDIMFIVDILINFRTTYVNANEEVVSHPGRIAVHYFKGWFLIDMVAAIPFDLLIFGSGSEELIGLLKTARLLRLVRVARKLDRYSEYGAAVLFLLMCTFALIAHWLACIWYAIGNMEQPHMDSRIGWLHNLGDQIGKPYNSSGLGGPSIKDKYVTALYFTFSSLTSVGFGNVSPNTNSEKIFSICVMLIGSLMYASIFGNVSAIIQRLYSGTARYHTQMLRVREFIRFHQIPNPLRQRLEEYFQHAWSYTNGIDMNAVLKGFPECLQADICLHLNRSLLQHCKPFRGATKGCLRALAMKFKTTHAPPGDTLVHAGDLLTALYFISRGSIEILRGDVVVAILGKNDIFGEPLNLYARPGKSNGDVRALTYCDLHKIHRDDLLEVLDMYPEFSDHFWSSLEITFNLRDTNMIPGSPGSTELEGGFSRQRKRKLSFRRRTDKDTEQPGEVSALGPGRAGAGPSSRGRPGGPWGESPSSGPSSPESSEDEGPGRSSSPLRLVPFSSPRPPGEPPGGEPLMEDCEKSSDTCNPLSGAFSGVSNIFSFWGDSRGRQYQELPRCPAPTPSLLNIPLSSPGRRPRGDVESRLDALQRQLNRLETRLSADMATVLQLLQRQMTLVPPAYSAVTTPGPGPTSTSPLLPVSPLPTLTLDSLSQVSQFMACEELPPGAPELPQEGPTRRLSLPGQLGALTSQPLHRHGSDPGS

Compared with `CCOc1ncccc1C(=O)NCC1COc2ccccc2O1` (stereo not drawn), `CCn1c(SCC(=O)c2ccccc2)nnc1-c1cccnc1` is higher in “hERG current change (%, negative = inhibition) at 10uM” value: -17.9% for the first, -14.5% for the second.

Compared with `COc1ccc(-n2nc(C(=O)O)c3ccccc3c2=O)cc1`, `COC(=O)/C=C1\C(=O)N(c2nc3ccccc3s2)C(=S)N1c1ccc(F)cc1` is higher in “hERG current change (%, negative = inhibition) at 10uM” value: -12.1% for the first, 17.7% for the second.

Going from `CC(Oc1ccc(C(=O)c2ccccc2)cc1)C(=O)N1CCOCC1` (stereo not drawn) to `CC(NC(=O)/C(C#N)=C/c1ccc(C(=O)O)cc1)c1ccccc1` (stereo not drawn), the “hERG current change (%, negative = inhibition) at 10uM” value rises from -28.5% to -14.5%.

Compared with `Cn1cc(-c2ccno2)c(C(=O)O)n1`, `Cn1nc(C(=O)NCCN2CCOCC2)c2ccccc2c1=O` is lower in “hERG current change (%, negative = inhibition) at 10uM” value: 31.7% for the first, 21.2% for the second.

Compared with `O=c1n(Cc2ccccc2)c2cc(Cl)cnc2n1Cc1ccccc1`, `Cn1cnnc1SCC(=O)NCCC(c1ccccc1)c1ccccc1` is higher in “hERG current change (%, negative = inhibition) at 10uM” value: -6.94% for the first, 7.79% for the second.

First: Cc1ccc2nc(-c3ccccc3)cc(C(=O)N3CCN(S(=O)(=O)c4c(C)noc4C)CC3)c2c1
Second: CCn1c(SCC(=O)c2cc(C)ccc2C)nc2cc(S(=O)(=O)N3CCOCC3)ccc21
The “hERG current change (%, negative = inhibition) at 10uM” value of the first is higher: 6.62% for the first, -7.65% for the second.

Compared with `CCN(/C=N/S(=O)(=O)c1ccc(Cl)cc1)CC`, `CCc1ccc(S(=O)(=O)NC(=S)NC2CCCCC2)cc1` is higher in “hERG current change (%, negative = inhibition) at 10uM” value: 10.6% for the first, 17.2% for the second.

Going from `Cc1nn(CC(=O)NCCCN2CCCCC2C)c(=O)c2cccn12` (stereo not drawn) to `O=C(CSc1nnnn1C1CCCC1)Nc1ccccc1N1CCOCC1`, the “hERG current change (%, negative = inhibition) at 10uM” value falls from 21.6% to -13.9%.

First: O=C(Nc1cccc([N+](=O)[O-])c1)c1ccc2snnc2c1
Second: CCCc1nnc(NC(=O)c2ccc([N+](=O)[O-])cc2)s1
The “hERG current change (%, negative = inhibition) at 10uM” value of the first is lower: -10.4% for the first, -3.29% for the second.

Going from `Cc1ccc(NC(=S)/C(=C(\[O-])c2ccc(Cl)s2)[n+]2cccc(CO)c2)cc1C` to `Cc1cc(S(=O)(=O)Nc2cccc(Cl)c2)c(C)s1`, the “hERG current change (%, negative = inhibition) at 10uM” value falls from 11.7% to 8.15%.

First: COC(=O)c1sccc1NC(=S)N1CC(C)CC(C)C1 (stereo not drawn)
Second: O=C(c1ccco1)N1CCN(C(=S)Nc2ccc(Br)cc2Cl)CC1
The “hERG current change (%, negative = inhibition) at 10uM” value of the first is higher: 9.72% for the first, -44.7% for the second.

Compared with `COCCCn1c(C)cc(C(=O)COC(=O)CCc2nc3ccccc3c(=O)[nH]2)c1C`, `COCCCN1C(=O)CS/C1=N\S(=O)(=O)c1ccccc1` is lower in “hERG current change (%, negative = inhibition) at 10uM” value: 3.27% for the first, -4.81% for the second.

Compared with `COC(=O)C1=C(C)N(C(C)C)C(=O)C1(NC(=O)C1CCCCC1)C(F)(F)F` (stereo not drawn), `CC(OC(=O)CC1CCCCC1)C(=O)Nc1cccc(C#N)c1` (stereo not drawn) is lower in “hERG current change (%, negative = inhibition) at 10uM” value: -1.54% for the first, -25% for the second.

First: CCOC(=O)c1c(NC(=O)c2ccccc2C(=O)O)sc2c1CCCC2
Second: O=C(O)c1ccccc1C(=O)NNC(=O)C(c1ccccc1)c1ccccc1
The “hERG current change (%, negative = inhibition) at 10uM” value of the first is lower: 18% for the first, 19.9% for the second.

First: CCCc1cc(NCC2CCCO2)n2c(nc3ccccc32)c1C#N (stereo not drawn)
Second: Cc1ccc(-c2noc(C3CCCN(C(=O)c4cccc(F)c4)C3)n2)cc1 (stereo not drawn)
The “hERG current change (%, negative = inhibition) at 10uM” value of the first is lower: -66.5% for the first, 0.64% for the second.

Compared with `CCOc1ccc(-c2nn[nH]n2)cc1`, `CCCOc1ccc(-c2nnn(CC(=O)c3c[nH]c4ccccc34)n2)cc1` is higher in “hERG current change (%, negative = inhibition) at 10uM” value: -9.16% for the first, 3.23% for the second.

Going from `CC1(C)CC(=O)C=C(NC2CC(C)(C)NC(C)(C)C2)C1` to `NS(=O)(=O)c1ccc(CNC(=O)NC23CC4CC(CC(C4)C2)C3)cc1`, the “hERG current change (%, negative = inhibition) at 10uM” value falls from 11.5% to -5.83%.

Compared with `COc1ccccc1NCCC(=O)OCC(=O)NC1CC1`, `COc1ccc(C)cc1NC(=O)C1CCCN1C(=O)OCc1ccccc1` (stereo not drawn) is lower in “hERG current change (%, negative = inhibition) at 10uM” value: 7.08% for the first, -6.78% for the second.

Compared with `Clc1ccc(-c2ncc3ccccn23)c(Cl)c1`, `CCc1noc(C)c1C(=O)Nc1nc(-c2ccc(Cl)cc2Cl)cs1` is lower in “hERG current change (%, negative = inhibition) at 10uM” value: 8.69% for the first, -4.11% for the second.

Compared with `CC(OC(=O)CCC(=O)c1ccc(Cl)s1)C(=O)NC1(C#N)CCCCC1` (stereo not drawn), `CC(=O)c1cccc(S(=O)(=O)N2CCC(C(=O)O)(c3ccccc3)CC2)c1` is higher in “hERG current change (%, negative = inhibition) at 10uM” value: -19.1% for the first, 19.4% for the second.

Compared with `S=C(Nc1ccccc1)Nc1ccc(Br)cc1`, `O=C(Nc1ccccc1)c1nc[nH]c1C(=O)N1CCN(c2ccccc2)CC1` is lower in “hERG current change (%, negative = inhibition) at 10uM” value: 18% for the first, -1.35% for the second.

Compared with `COc1ccc(-c2cc3ncc(C(C)=O)c(C)n3n2)cc1`, `CSc1cc(C)n(-c2ccc(Cl)cc2)c(=S)c1C(C)=O` is lower in “hERG current change (%, negative = inhibition) at 10uM” value: 35.1% for the first, -33.9% for the second.

Compared with `COc1ccccc1C(=O)NN1C(=O)C2C3C=CC(O3)C2C1=O` (stereo not drawn), `O=C(Cc1ccccc1)NN1C(=O)C2C3C=CC(C4CC34)C2C1=O` (stereo not drawn) is lower in “hERG current change (%, negative = inhibition) at 10uM” value: 11% for the first, 7.9% for the second.

Compared with `COc1ccc(NC(=O)c2cc(F)cc(F)c2)cc1Cl`, `COc1ccc(C(=O)Nc2ccccc2C(=O)NC(C)C)cc1OC` is lower in “hERG current change (%, negative = inhibition) at 10uM” value: 9.25% for the first, -6.82% for the second.

Going from `COc1ccccc1Nc1nc(Cl)nc(Nc2ccccc2OC)n1` to `COc1ccccc1NC(=S)N1CCN(c2ccccn2)CC1`, the “hERG current change (%, negative = inhibition) at 10uM” value rises from -5.92% to 9.3%.

Compared with `COc1c(C)cc(S(=O)(=O)NCc2ccccn2)c(C)c1C`, `CCOc1ccccc1NC(=O)Cn1cnc2c(cnn2-c2ccc(C)c(C)c2)c1=O` is lower in “hERG current change (%, negative = inhibition) at 10uM” value: 14.2% for the first, 11% for the second.

Compared with `CC(C)(C)c1cc(CCC(=O)NNC(=O)c2ccncc2)cc(C(C)(C)C)c1O`, `CCCCC(=O)Nc1ccc(NC(=S)NC(=O)c2cccs2)cc1OC` is higher in “hERG current change (%, negative = inhibition) at 10uM” value: -5.19% for the first, -3.91% for the second.

Compared with `CC(Nc1ncnc2nc[nH]c12)c1ccccc1` (stereo not drawn), `O=C(CCCSc1nc2ccccc2[nH]1)NCc1ccccc1` is lower in “hERG current change (%, negative = inhibition) at 10uM” value: -0.89% for the first, -23.9% for the second.

Going from `Cc1c[n+]([O-])ccc1Oc1ccc([N+](=O)[O-])cc1` to `CN1C(=O)C(=Cc2ccccc2Oc2ccc(Cl)cc2)C(=O)N(C)C1=O`, the “hERG current change (%, negative = inhibition) at 10uM” value rises from -9.03% to -7.42%.

Compared with `COCC(=O)Oc1c(Sc2ccccc2[N+](=O)[O-])c(C)nn1C(C)(C)C`, `COC(=O)c1ccccc1CSc1nsc(/C=C/N(C)C)c1C#N` is higher in “hERG current change (%, negative = inhibition) at 10uM” value: 7.51% for the first, 17.3% for the second.

Going from `CC(=O)Nc1ccc(S(=O)(=O)N2CCCC2C(=O)Nc2ccc3c(c2)OCCO3)cc1` (stereo not drawn) to `COc1ccc(C(=O)NC2CCN(S(=O)(=O)c3ccc(C)cc3)CC2)cc1`, the “hERG current change (%, negative = inhibition) at 10uM” value falls from 21% to 10.7%.

First: O=C(CCNC(=O)c1ccccc1Cl)Nc1nc(-c2ccc(F)cc2)cs1
Second: O=C(CNC(=O)c1ccc(N2C(=O)c3ccccc3C2=O)cc1)OCC(=O)c1ccc(Cl)cc1
The “hERG current change (%, negative = inhibition) at 10uM” value of the first is lower: -38% for the first, -0.893% for the second.

Going from `Cl.OCCN(CCO)CC(O)COCCC12CC3CC(CC(C3)C1)C2` (stereo not drawn) to `COC(=O)C1=C(c2ccc(-c3ccccc3)c(F)c2)C[C@@H]2CC[C@H]1N2C(=O)NCC1CC1`, the “hERG current change (%, negative = inhibition) at 10uM” value rises from 3.74% to 9.3%.

Going from `CCN(CC)CCOc1ccc2nc(N(C)C)sc2c1.Cl` to `CC(=O)c1ccc(OCc2cc(C(=O)NC(C)CCn3cccn3)no2)cc1` (stereo not drawn), the “hERG current change (%, negative = inhibition) at 10uM” value falls from 11.1% to 4.34%.

First: O=c1nc2ccccc2c2n1CC(CN1CCN(c3ccc(F)cc3)CC1)N2 (stereo not drawn)
Second: COc1cccc(/C=C2\SC(=N)N(c3ccc(F)cc3)C2=O)c1
The “hERG current change (%, negative = inhibition) at 10uM” value of the first is lower: -68.6% for the first, 9.22% for the second.

Compared with `CC(C)(C)c1ccc(S(=O)(=O)NNC(=O)C2CCN(Cc3cccc(F)c3)CC2)cc1`, `Cc1ccc(C(=O)NC2CCN(CC(=O)Nc3cccc([N+](=O)[O-])c3)CC2)cc1` is lower in “hERG current change (%, negative = inhibition) at 10uM” value: -12.8% for the first, -71.4% for the second.

Compared with `CN1CCN(C/C(=C2/N=C(c3ccccc3)OC2=O)N(C)C)CC1`, `NNC(=O)c1cc(-c2ccccc2)sc1N` is higher in “hERG current change (%, negative = inhibition) at 10uM” value: -44.3% for the first, 9.61% for the second.

Going from `COc1cccc(-n2c(Cc3cc(=O)[nH]c(=O)[nH]3)nnc2SCc2cccc(C(F)(F)F)c2)c1` to `Cc1cc(NC(=O)/C(C#N)=C/c2ccc(-c3cccc(C(F)(F)F)c3)o2)n(-c2ccccc2)n1`, the “hERG current change (%, negative = inhibition) at 10uM” value falls from 15.8% to -16.4%.

Going from `CN(CC(=O)Nc1ccc(C#N)cc1)Cc1ccc(Cl)cc1` to `Cc1ccc(-n2c(O)c(C=N)c(=O)n(-c3ccc(C)cc3)c2=O)cc1`, the “hERG current change (%, negative = inhibition) at 10uM” value rises from -68.6% to -8.85%.

First: Cc1[nH][nH]c(=O)c1N=Nc1ccccc1C#N
Second: COc1cccc(Oc2cc(Cl)nc(N)n2)c1
The “hERG current change (%, negative = inhibition) at 10uM” value of the first is higher: -3.8% for the first, -6.51% for the second.

First: Oc1[nH]c(=S)sc1/C=C1\C(c2ccccc2)=Nc2ccccc21
Second: O=C1C=CC(=O)C(C2=C3C(=O)N(CCc4ccccc4)CC(=O)N3CCC2)=C1
The “hERG current change (%, negative = inhibition) at 10uM” value of the first is higher: 34.2% for the first, -11.9% for the second.

First: Cc1c(C)c2c(C)[nH]nc2oc1=O
Second: CCn1ncc(/C=C2/SC(=S)NC2=O)c1C
The “hERG current change (%, negative = inhibition) at 10uM” value of the first is lower: 14.7% for the first, 23.6% for the second.

Going from `CCN1C(C#N)=C(C#N)N=C(C)CC1(C)C` to `CSc1ccc(S(=O)(=O)N2c3ccccc3CC2C)cc1` (stereo not drawn), the “hERG current change (%, negative = inhibition) at 10uM” value falls from 17.7% to 2.29%.

Compared with `CC(NC(=O)CCSCCC(=O)NC(C)c1ccccc1)c1ccccc1` (stereo not drawn), `C=CCOc1ccc(/C=C/C(=O)OCC(=O)NCc2cccs2)cc1` is higher in “hERG current change (%, negative = inhibition) at 10uM” value: -0.992% for the first, 9.06% for the second.

First: Cc1ccc(NS(=O)(=O)c2cccc(C(=O)NCC(c3ccco3)N3CCCCC3)c2)cc1 (stereo not drawn)
Second: c1csc(C2CCCN2c2nc3nonc3nc2NC2CC2)n1 (stereo not drawn)
The “hERG current change (%, negative = inhibition) at 10uM” value of the first is lower: -20.1% for the first, 11.4% for the second.
